The whole screen tested about 310,000 compounds, of which about 14,000 (4.5%) showed an effect of 50% or more. The effect is printed as a negative number. The list shows a part of the results.
Target: human ether-à-go-go-related gene (hERG) potassium channel (human, UniProt Q12809)
Assay: primary screen, population patch clamp on CHO cells stably expressing hERG
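Also: peak tail current of the secondary pulse compared with the same well before compound.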

human ether-à-go-go-related gene (hERG) potassium channel, sequence (Q12809 whole entry, looked up): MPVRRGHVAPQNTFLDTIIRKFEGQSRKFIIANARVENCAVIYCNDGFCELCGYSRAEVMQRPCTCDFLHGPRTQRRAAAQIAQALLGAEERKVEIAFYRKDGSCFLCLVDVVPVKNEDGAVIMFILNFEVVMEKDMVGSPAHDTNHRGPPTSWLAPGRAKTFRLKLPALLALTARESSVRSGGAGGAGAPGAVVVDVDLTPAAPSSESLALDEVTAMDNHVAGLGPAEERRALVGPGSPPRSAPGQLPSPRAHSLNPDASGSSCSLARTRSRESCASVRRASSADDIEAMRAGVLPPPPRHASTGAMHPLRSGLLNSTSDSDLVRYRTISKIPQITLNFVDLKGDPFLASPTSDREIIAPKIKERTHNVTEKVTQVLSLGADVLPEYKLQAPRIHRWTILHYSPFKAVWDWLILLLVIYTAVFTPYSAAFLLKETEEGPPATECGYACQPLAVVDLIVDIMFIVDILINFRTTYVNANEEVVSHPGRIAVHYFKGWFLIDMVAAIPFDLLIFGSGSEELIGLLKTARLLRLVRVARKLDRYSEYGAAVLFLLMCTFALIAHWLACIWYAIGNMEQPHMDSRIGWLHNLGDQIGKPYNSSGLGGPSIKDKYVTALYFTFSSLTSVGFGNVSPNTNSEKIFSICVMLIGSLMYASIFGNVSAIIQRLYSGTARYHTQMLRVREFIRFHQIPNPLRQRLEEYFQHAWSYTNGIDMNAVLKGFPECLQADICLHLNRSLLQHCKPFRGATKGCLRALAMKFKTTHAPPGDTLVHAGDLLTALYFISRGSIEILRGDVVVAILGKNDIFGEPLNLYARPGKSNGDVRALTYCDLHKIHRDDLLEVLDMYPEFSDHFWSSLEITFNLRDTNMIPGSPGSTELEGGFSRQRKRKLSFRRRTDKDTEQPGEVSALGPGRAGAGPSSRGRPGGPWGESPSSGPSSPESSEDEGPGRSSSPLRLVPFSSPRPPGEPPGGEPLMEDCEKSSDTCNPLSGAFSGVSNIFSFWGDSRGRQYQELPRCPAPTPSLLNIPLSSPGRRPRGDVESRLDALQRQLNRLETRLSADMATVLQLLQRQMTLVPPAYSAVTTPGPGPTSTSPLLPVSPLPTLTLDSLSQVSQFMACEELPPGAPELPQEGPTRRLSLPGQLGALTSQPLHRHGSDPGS

SMILES | hERG current change (%, negative = inhibition) at 10uM
CN1CCN(Cc2c(O)ccc3c(=O)c(Oc4ccccc4Cl)c(C(F)(F)F)oc23)CC1 | -2.94%
Cc1cc(C)cc(NC(=O)CN(c2ccc(F)cc2)S(C)(=O)=O)c1 | 16%
COc1cc(S(=O)(=O)N2CCCCC2)ccc1NC(=O)c1ccc(F)cc1 | -17.6%
CC(OC(=O)c1cc(=O)[nH]c2ccccc12)C(=O)c1ccccc1 (centres unmarked) | -13.9%
CCC1(CC)NC(=O)N(CC(=O)NCc2ccc3c(c2)OCO3)C1=O | 8.7%
Cc1ccc(C)c(CN2CCC(CNC(=O)Nc3ccc(C)c(C)c3)CC2)c1 | -74.3%
CN(C)CC(O)COc1cc2ccccc2cc1C(=O)N1CCCCC1 (centres unmarked) | -41.5%
CCc1cccc(C)c1NC(=O)COC(=O)CNC(=O)c1cccs1 | 15.5%
COc1ccc(CCCc2nnc(SCc3nc4ccccc4c(=O)[nH]3)n2C)c(C)c1 | -22.3%
O=C(c1cc(Cl)ccc1Cl)N1CCOCC1 | 8%
COC(CNC(=O)C1CCCN(S(=O)(=O)c2ccc3c(c2)oc(=O)n3C)C1)OC (centres unmarked) | 17.1%
Cc1c(NS(=O)(=O)c2ccccc2)c(=O)n(-c2ccccc2)n1C | 13.1%
COc1ccc(CNC(=O)CN(c2ccc(C(C)C)cc2)S(=O)(=O)c2c(C)noc2C)cc1 | 7.55%
Fc1ccc(NC(=S)NCc2ccccc2)cc1 | 0.833%
CCn1cc(/C=N/N=C2\CCC3C4CCc5cc(O)ccc5C4CC[C@]23C)c(C)n1 (some centres unmarked) | -0.991%
O=C(O)c1ccc(Nc2nc(-c3ccc([N+](=O)[O-])cc3)nc3ccccc23)cc1 | 19%
O=C(COC(=O)CSc1ccc([N+](=O)[O-])cc1)NCCC1=CCCCC1 | 10.1%
Cn1nc([N+](=O)[O-])nc1Oc1ccccc1N | 13.8%
COc1cccc2sc(N(CCCN(C)C)C(=O)COc3ccc(Cl)cc3)nc12.Cl | -80.2%
Cc1ccccc1N1CCN(C(=S)c2ccc(-c3cccc([N+](=O)[O-])c3)o2)CC1 | -5.58%
CCc1noc(C)c1C(=O)N1CCN(S(=O)(=O)c2c(C)c(C)cc(C)c2C)CC1 | -6.05%
COc1cc(OC)c(C(=O)Nc2cccc3ccccc23)cc1OC | 15.5%

SMILES | hERG current change (%, negative = inhibition) at 10uM
O=c1c2ccccc2nc2n1C(CSc1ccc(Br)cc1)CN2 (centres unmarked) | -13%
Fc1ccc(-n2nnc(-c3ccccc3Br)n2)cc1 | 0.141%
Cl.NCCc1ccc(OCc2ccccc2)c(OCc2ccccc2)c1 | -22.1%
Cc1cc(-c2ccccc2)c(C#N)c(SCC(N)=O)n1 | -3.47%
CCOC(=O)c1ccc(NC(=O)C2CC3CCC2C3)cc1 (centres unmarked) | -15%
COCc1ccc(C(=O)N2CCCCC2C(=O)Nc2ccc(-n3nc(C)cc3C)cc2)o1 (centres unmarked) | 2.1%
Cn1c(N)c(C(=O)COC(=O)/C=C/c2ccc(OC(F)F)cc2)c(=O)n(C)c1=O | 3.23%
Cc1csc2ncc(C(=O)Nc3ccc4c(c3)OCCO4)c(=O)n12 | 12.6%
O=C(c1ccco1)N1CCN(c2ccc(F)cc2)CC1 | -0.235%
O=C(COC(=O)c1ccc(Cl)nc1)Nc1cccc(S(=O)(=O)N2CCCCC2)c1 | -34.6%
CN(C(=O)COC(=O)c1ccc(=O)n(Cc2ccccc2)n1)C1CCS(=O)(=O)C1 (centres unmarked) | -3.87%
CCOc1cc(S(=O)(=O)NC2CCCCCC2)ccc1F | -8.88%
Cc1[nH]c(=O)[nH]c(=O)c1S(=O)(=O)N(C)Cc1ccccc1 | -4.02%
CCC/C(O)=C1\C(=O)CC(c2ccccc2)CC1=NCCc1c(C)[nH]c2ccc(C)cc12 (centres unmarked) | -0.0297%
COc1ccc(CCn2c(O)c(C=NCCCN(C)C)c(=O)[nH]c2=O)cc1OC | -7.51%
O=C(CSc1nc2ccccc2o1)Nc1ccc(Cl)cc1 | -15%
COc1ccccc1C(=O)Nc1ccc(C(=O)/C=C/c2cccs2)cc1 | 16%
Cn1c(=O)[nH]c(=O)c2c1nc(N1CCOCC1)n2CCSc1nnnn1-c1ccccc1 | -21.1%
Brc1ccc(/C=N/c2nc3ccccc3n2CCN2CCOCC2)cc1 | 1.64%
COc1cc(C=O)ccc1OCCOCCOc1ccc(Cl)cc1 | -37.6%
CC(C)n1c(NCc2nc3ccccc3n2C)nc2ccccc21 | -46.4%
CCOC(=O)CN1CC23C=CC(O2)C(C(=O)Nc2ccc(F)c(C)c2)C3C1=O (centres unmarked) | 14.3%

— publication PMC4336329 (PLoS ONE, 2015)
